In patent publication US9388243B2, “Method of target membrane protein depletion” (Samsung Electronics Co., Ltd., priority 2013, dated 2016):

Columns and labels:
Conditions in all cases: rank among the four antibodies of Reference Example 1.7
[1] = molecular target: T1, c-Met (Homo sapiens, UniProt P08581); assay: Affinity for c-Met of the four affinity-matured antibodies; assay type: binding
[2] = system: Akt phosphorylation; assay: Akt phosphorylation by the four affinity-matured antibodies; assay type: cell-based
[3] = molecular target: T1, c-Met; assay: c-Met degradation degree of the four affinity-matured antibodies; assay type: cell-based

T1 sequence (P08581 25-1390): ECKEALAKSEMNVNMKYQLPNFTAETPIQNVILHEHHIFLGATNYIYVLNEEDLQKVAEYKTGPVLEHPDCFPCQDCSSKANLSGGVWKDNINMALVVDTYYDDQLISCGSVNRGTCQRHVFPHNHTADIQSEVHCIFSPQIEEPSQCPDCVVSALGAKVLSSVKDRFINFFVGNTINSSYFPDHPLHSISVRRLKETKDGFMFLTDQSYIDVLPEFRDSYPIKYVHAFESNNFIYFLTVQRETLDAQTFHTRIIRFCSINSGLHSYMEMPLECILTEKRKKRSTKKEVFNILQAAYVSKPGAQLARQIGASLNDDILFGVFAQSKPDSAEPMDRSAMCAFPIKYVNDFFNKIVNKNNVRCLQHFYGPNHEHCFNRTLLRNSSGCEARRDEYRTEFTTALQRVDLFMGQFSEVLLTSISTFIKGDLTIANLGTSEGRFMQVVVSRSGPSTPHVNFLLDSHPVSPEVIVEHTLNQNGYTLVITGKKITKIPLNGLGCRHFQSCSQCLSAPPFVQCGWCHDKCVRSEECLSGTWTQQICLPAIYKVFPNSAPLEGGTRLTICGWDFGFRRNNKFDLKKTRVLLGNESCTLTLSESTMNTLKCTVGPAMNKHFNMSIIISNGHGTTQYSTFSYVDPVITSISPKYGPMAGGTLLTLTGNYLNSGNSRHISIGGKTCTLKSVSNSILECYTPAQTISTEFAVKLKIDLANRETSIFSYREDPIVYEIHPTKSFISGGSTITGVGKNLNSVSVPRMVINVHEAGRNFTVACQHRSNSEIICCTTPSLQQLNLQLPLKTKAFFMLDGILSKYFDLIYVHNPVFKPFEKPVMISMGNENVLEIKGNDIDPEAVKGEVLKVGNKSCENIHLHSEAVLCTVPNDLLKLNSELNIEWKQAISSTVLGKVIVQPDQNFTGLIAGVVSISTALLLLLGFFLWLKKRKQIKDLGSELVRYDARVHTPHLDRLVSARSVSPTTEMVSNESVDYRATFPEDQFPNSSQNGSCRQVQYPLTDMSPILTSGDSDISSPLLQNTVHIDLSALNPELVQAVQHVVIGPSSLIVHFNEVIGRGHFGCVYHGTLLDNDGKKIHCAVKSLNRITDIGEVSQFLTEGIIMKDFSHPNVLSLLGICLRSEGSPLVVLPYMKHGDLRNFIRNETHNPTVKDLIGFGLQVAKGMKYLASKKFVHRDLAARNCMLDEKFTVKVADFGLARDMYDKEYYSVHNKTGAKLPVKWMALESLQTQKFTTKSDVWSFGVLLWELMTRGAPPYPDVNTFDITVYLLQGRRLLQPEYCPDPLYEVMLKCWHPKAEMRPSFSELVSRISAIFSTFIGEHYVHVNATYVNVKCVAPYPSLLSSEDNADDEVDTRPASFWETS

affinity for c-Met [1]: highest | c-Met degradation degree [3]: lowest
B1: huAbF46-H4-A1: affinity-matured anti-c-Met antibody, L3-1 origin (antibody)
heavy: EVQLVESGGGLVQPGGSLRLSCAASGFTFTDYYMSWVRQAPGKGLEWLGFIRNKANGYTTEYSASVKGRFTISRDNSKNTLYLQMNSLRAEDTAVYYCARDNWFAYWGQGTLVTVSSASTKGPSVFPLAPSSKSTSGGTAALGCLVKDYFPEPVTVSWNSGALTSGVHTFPAVLQSSGLYSLSSVVTVPSSSLGTQTYICNVNHKPSNTKVDKKVEPKSCDCH[human IgG1 Fc skipped]
light: DIQMTQSPSSLSASVGDRVTITCKSSQSLLASGNQNNYLAWHQQKPGKAPKMLIIWASTRVSGVPSRFSGSGSGTDFTLTISSLQPEDFATYYCQQSYSRPYTFGQGTKVEIKRTVAAPSVFIFPPSDEQLKSGTASVVCLLNNFYPREAKVQWKVDNALQSGNSQESVTEQDSKDSTYSLSSTLTLSKADYEKHKVYACEVTHQGLSSPVTKSFNRGEC
Akt phosphorylation [2]: lowest
